Laboratory results taken from paper PMC4336329 (PLoS ONE, 2015).
The campaign covered roughly 310,000 compounds. About 14,000 (4.5%) showed an effect of 50% or more. Effects have a minus sign here. Some of the results follow.

target: human ether-à-go-go-related gene (hERG) potassium channel (human, UniProt Q12809); assay: primary screen, population patch clamp on CHO cells stably expressing hERG
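Note: peak tail current of the secondary pulse compared with the same well before compound.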

Chain of human ether-à-go-go-related gene (hERG) potassium channel (Q12809 whole entry, looked up): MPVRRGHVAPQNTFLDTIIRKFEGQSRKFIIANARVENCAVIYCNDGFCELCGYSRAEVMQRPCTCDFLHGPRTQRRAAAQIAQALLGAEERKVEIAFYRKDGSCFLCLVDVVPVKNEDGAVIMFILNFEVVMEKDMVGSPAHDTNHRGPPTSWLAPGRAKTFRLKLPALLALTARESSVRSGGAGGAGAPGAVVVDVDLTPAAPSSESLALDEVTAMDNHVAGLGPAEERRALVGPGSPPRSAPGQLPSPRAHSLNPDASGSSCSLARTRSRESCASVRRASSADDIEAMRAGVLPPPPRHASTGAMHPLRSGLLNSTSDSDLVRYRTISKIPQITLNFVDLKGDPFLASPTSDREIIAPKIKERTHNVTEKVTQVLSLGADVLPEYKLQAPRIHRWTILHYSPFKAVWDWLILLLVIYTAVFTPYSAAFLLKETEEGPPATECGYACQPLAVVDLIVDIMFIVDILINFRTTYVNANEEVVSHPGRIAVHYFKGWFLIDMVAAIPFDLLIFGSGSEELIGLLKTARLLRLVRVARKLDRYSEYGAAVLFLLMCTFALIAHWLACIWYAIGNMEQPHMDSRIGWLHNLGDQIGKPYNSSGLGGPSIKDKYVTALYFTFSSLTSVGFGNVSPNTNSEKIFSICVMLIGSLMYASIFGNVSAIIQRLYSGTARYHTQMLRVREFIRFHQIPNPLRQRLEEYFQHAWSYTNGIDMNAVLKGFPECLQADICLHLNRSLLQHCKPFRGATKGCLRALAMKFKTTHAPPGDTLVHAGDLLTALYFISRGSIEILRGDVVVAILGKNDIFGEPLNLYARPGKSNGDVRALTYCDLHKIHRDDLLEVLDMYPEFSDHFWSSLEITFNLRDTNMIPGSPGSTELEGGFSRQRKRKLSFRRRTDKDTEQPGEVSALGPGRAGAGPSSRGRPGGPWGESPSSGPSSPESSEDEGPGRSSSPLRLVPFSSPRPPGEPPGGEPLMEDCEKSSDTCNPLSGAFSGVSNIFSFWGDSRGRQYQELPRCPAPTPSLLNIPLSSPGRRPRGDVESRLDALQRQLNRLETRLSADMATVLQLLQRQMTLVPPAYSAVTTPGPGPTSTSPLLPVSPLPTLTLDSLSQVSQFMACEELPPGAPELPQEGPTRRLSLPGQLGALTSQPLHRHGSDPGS

SMILES | hERG current change (%, negative = inhibition) at 10uM
CC1CCN(CC(=O)Nc2ccccc2C(=O)c2ccccc2)CC1 | -10.6%
Nc1nnc(SCn2nnc3ccccc3c2=O)s1 | 21%
COc1ccc(-c2cc(C(=O)Nc3ccc(C(N)=O)cc3)c3ccccc3n2)cc1OC | 8.99%
CCOP(=O)(OCC)C(O)c1cccnc1 (stereo not drawn) | -3.65%
C=CCn1cccc(/C=C/C(=O)c2ccc(C(C)(C)C)cc2)c1=S | 3.37%
Cc1ccc(OCc2nc(-c3ccccn3)no2)cc1 | -5.28%
O=C(CNC(=O)c1ccc(Br)o1)NCc1ccc(F)cc1 | 18.1%
COc1ccc(OC)c(/C=N/N=C2\SCC(=O)N2Cc2ccco2)c1 | 6.61%
CCCCN(C)CCn1c(=S)[nH]c2ncccc2c1=O | -24%
CC(C)c1nc(SCC(=O)Nc2nc3c(s2)CCCC3)c2ccccc2n1 | -2.4%
O=C1N/C(=C\c2ccc(O)cc2)C(O)=C1C=NCc1ccccc1 | 6.64%
Cc1ccc(-n2c3c(cc(C(=O)NCC(=O)c4ccccc4)c2=O)C(=O)CCC3)cc1 | 10.2%
Cc1ccc(/C(N)=N/OC(=O)C23CC4CC(CC(C4)C2)C3)cc1 | 3.85%
COc1ccc([C@@H]2C[C@H]3CN(c4ccccc4)C(=O)[C@]34CCCN24)c(OC)c1OC | -78.3%
CCc1ccccc1OCC(=O)OCC(=O)Nc1cc(C)on1 | -2.74%
CN(C(=O)COc1cccc(Br)c1)C1CCS(=O)(=O)C1 (stereo not drawn) | 17.5%
COc1cc(C(=O)[O-])ccc1Cl.[NH4+] | 16.4%
CCNC(=O)CN1C(=O)NC2(CCOc3ccccc32)C1=O (stereo not drawn) | 12.7%
CC(=O)Nc1ccc(SCC(=O)c2cc(C)n(-c3ccccc3F)c2C)cc1 | 5.28%

SMILES | hERG current change (%, negative = inhibition) at 10uM
COc1cccc(OCc2nnc(SCC(=O)OCc3ccccc3)o2)c1 | -4.36%
Cc1oc(C)c(S(=O)(=O)NCc2cccs2)c1C(=O)O | -0.392%
O=C1N=C(N2CCOCC2)S/C1=C/c1ccc(-c2ccc(F)cc2)o1 | 2.43%
N=C1C(c2ccccc2)=C(O)CN1CCO | 23.7%
Cc1ccc(NC(=O)c2ccc(CSc3nnnn3C)cc2)cc1 | -15.3%
CCOC(=O)C1=C(C)NC(C)=C(C(=O)OCCNC(=O)c2cccnc2)C1c1cccc([N+](=O)[O-])c1 (stereo not drawn) | -6.38%
COc1ccc(CCNC(=O)CNC(=O)c2ccc(Br)o2)cc1OC | -29.9%
CS(=O)(=O)N1CCN(c2ccccc2NC(=O)c2cccs2)CC1 | -49.9%
COc1ccc(N(CC(=O)NCCc2ccccc2)C(=O)c2csnn2)cc1 | -25.2%
COc1ccc(NC(=O)CC2C(=O)N(C)C(=S)N2Cc2ccncc2)cc1 (stereo not drawn) | 5.18%
O=C1NC(=O)/C(=C/C(=O)N2CCOCC2)S1 | 2.82%
NC(=O)c1ccc(NC(=O)c2cccc(Oc3ccccc3)c2)cc1 | 16.9%
Cc1cc(NCCC(C)C)n2nc(C)c(-c3ccccc3)c2n1 | 1.03%
Cc1ccc(C(=O)C2=C(O)C(=O)N(Cc3cccnc3)C2c2ccc(Cl)c(Cl)c2)o1 (stereo not drawn) | 13%
COC(=O)CCCC1=CC2=C(c3ccccc3)C(=O)C(C)(OC(=O)C3CCCC3)C(=O)C2=CN1CC(C)C (stereo not drawn) | -1.56%
Cc1ccccc1C(=O)Nc1ccccc1N1CCN(C(=O)c2ccccc2)CC1 | -74%
CC1CCC(NC(=O)C2CCN(S(=O)(=O)c3ccc4nc5c(c(C(=O)O)c4c3)CC(C)CC5)CC2)CC1 (stereo not drawn) | 16.1%
O=C(O)CC1CCC(=C(Cl)Cl)C1 (stereo not drawn) | -3.88%
CC(C)(C)c1cc(C(=O)N2CCc3ccccc3C2)ccn1 | 1.64%

SMILES | hERG current change (%, negative = inhibition) at 10uM
CCOC(=O)Cc1ccc(NC(=O)c2cccc([N+](=O)[O-])c2)cc1 | 5.55%
CC1CN(c2nc3c(c(=O)n(C)c(=O)n3C)n2Cc2c(F)cccc2Cl)CC(C)O1 (stereo not drawn) | -7.08%
CCOC(=O)C1CCCN(C(=O)COc2ccc(S(=O)(=O)N(CC)c3ccccc3)cc2)C1 (stereo not drawn) | -51.8%
CN(CC1CCOCC1)C(=O)CC1C(=O)NCCN1Cc1cccc(Oc2ccccc2)c1 (stereo not drawn) | 33.4%
O=C(O)C(=O)O.O=[N+]([O-])c1ccc(OCCN2CCCCCC2)cc1 | -86.1%
Cc1n[nH]c(=O)nc1N1CCc2ccccc2C1 | 4.47%
COc1ccc(C2NC(C(=O)O)CS2)cc1COCC(F)(F)F (stereo not drawn) | 3.38%
Cl.NCCc1c[nH]c2ccc(F)cc12 | 17.4%
CCOC(=O)c1nnn(CC(=O)Nc2cccc(F)c2)c1C(=O)OCC | 7.97%
CSc1cccc(CN2CCN(CCC(C)C)C(CCO)C2)c1 (stereo not drawn) | -33.2%
O=C(NC1CCCCC1)C(c1ccco1)N(Cc1ccco1)C(=O)c1ccco1 (stereo not drawn) | -9.2%
CC(=O)N(C)c1ccc(N2CCOCC2)c2c1C(=O)c1ccccc1C2=O | -0.974%
N#Cc1c(-c2ccco2)ccn(Cc2cccc(F)c2)c1=O | 9.79%
CC(NC(=O)COc1ccc(-c2ccccc2)cc1)C1CCCO1 (stereo not drawn) | -6.36%
CCOC(=O)C1(CC2CCCCO2)CCN(C(=O)Nc2ccc3c(c2)OCO3)CC1 (stereo not drawn) | 15.9%
COc1ccc(NC(=O)CSc2n[nH]c(CNc3cccc(C)c3)n2)cc1 | -4.57%
c1cncc(CNc2ncn[nH]2)c1 | 7.23%
Cc1cc(C)cc(OCC(=O)NCc2nc(-c3ccccc3)no2)c1 | 6.96%
COc1ccc(C(=O)NNC(=O)c2ccc(C)cc2)cc1S(=O)(=O)N1CCCC1 | -6.29%
